Test results reported in the supplement of paper PMC12217912.
Some of the results follow. The full chains were built here from the parent and the listed change. Inactive controls read about 0.05.

B1: TEV protease; numbered along this chain (parent)
chain: MGESLFKGPRDYNPISSSICHLTNESDGHTTSLYGIGFGPFIITNKHLFRRNNGTLVVQSLHGVFKVKDTTTLQQHLVDGRDMIIIRMPKDFPPFPQKLKFREPQREERICLVTTNFQTKSMSSMVSDTSCTFPSGDGIFWKHWIQTKDGQCGSPLVSTRDGFIVGIHSASNFTNTNNYFTSVPKNFMELLTNQEAQQWVSGWRLNADSVLWGGHKVFMVKPEEPFQPVKEATQL

Variants of: B1
Assay: raw area under fraction-flipped curve 0-4 h after induction (AUC4h, not background-subtracted), DNA-recorder readout of cleavage of the substrate (dimensionless); higher = more cleavage of the substrate by the protease variant
Details: temperature: 34 °C; time window: 0-4 h after rhamnose induction
Method: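 In vivo DNA recorder in E. coli TOP10(DE3) ΔrhaA at 34 °C. Each TEVp single-site mutant (parent TEVp 0) is paired with a single-site variant of the 7-mer TEVs (canonical ENLYFQ|S). The substrate sits between flexible linkers in a Bxb1-sfGFP-TEVs-SsrA fusion, so cleavage stabilises Bxb1 and speeds flipping of a recombination array, read by NGS. The value is the raw area under the fraction-flipped curve over 0-4 h after rhamnose induction (AUC4h), with ≥20 reads per time point. It is not background-subtracted; inactive controls average about 0.047.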
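Further: Bxb1 expression induced with 0.2% (w/v) L-rhamnose at OD600 near 0.5, cultures sampled hourly, flipped fraction per protease–substrate barcode pair counted by paired-end Illumina sequencing.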

Variant	area with substrate ENLYFQA	area with substrate ENLYFQF	area with substrate ENLYFQG	area with substrate ENLYFQH	area with substrate ENLYFQI	area with substrate ENLYFQL	area with substrate ENLYFQM	area with substrate ENLYFQN	area with substrate ENLYFQQ	area with substrate ENLYFQR	area with substrate ENLYFQS	area with substrate ENLYFQT	area with substrate ENLYFQV	area with substrate ENLYFQW	area with substrate ENLYFQY	area with substrate ENLYFQC	area with substrate ENLYFQD	area with substrate ENLYFQK	area with substrate ENLYFQP	area with substrate ENLYFQE
V220R	0.0789	0.0924	0.107	0.0745	0.0601	0.0677	0.107	0.0751	0.064	0.0667	0.105	0.0734	0.0681	0.059	0.0754					
S16L			0.0753		0.0481	0.0684	0.0949	0.0819	0.0637	0.0596	0.0965	0.0626	0.066		0.08	0.0948	0.08	0.0586	0.0395	
S16H			0.114	0.079	0.065	0.0585	0.0938	0.0726		0.0434	0.0981	0.065		0.0646		0.126	0.06		0.0524	
unchanged	0.101	0.0765	0.0975	0.083	0.0597	0.0609	0.0876	0.0788	0.0712	0.0605	0.104	0.066	0.0604	0.0676	0.0776	0.115	0.0721	0.0642	0.0582	0.0636
T192H	0.0917		0.0835	0.0881	0.0559	0.0767	0.105	0.08		0.0543	0.0998	0.083	0.0714	0.0711	0.0697	0.15			0.0683	
T192Q	0.131	0.0623	0.105			0.0596	0.094	0.0752	0.0822	0.0597	0.0988	0.0658	0.0599		0.0642	0.109		0.0383		
T192E	0.0902	0.0718	0.0745				0.0908			0.0758	0.103					0.141	0.0722		0.0617	
N177E	0.11		0.154	0.0782	0.0476	0.0681	0.074	0.0754	0.0695	0.0598	0.108	0.0625	0.0597	0.0631	0.0743	0.117		0.056	0.0533	
P40I			0.0743	0.073	0.0579	0.0436	0.0716	0.0679		0.0509	0.0905	0.0691	0.0523	0.0557		0.094	0.073	0.0593	0.0556	
P40N					0.0672	0.0569	0.0984			0.0498	0.112	0.0701	0.0549	0.0428	0.0703	0.109	0.0769	0.0625		
P40K			0.0934		0.0657	0.0786	0.0973	0.0613	0.0773	0.0621	0.108	0.055	0.0609	0.0944	0.0421	0.117	0.0663	0.0722		
E224K	0.103			0.0719		0.0597	0.0914	0.0731		0.0356	0.0997	0.0668	0.064	0.0761	0.0665	0.12	0.0706			
